Measurements as given in PubChem BioAssay AID1347434 (National Center for Advancing Translational Sciences (NCATS), 2020).
About 30 (2%) of roughly 1,200 compounds were called active. Inconclusive results (about 23%) are left out. Calls follow the shape of the dose curve; as a rule, active = well fitted inhibition curve with a large enough effect; inconclusive = small, poorly fitted or top-dose-only effect; inactive = flat fitted curve, though single readings scatter. This is one part of the list.

What follows are compounds tested against Single-stranded DNA cytosine deaminase (Homo sapiens) (UniProt Q9GZX7) (assay: Confirmatory qHTS assay for inhibitors of Activation Induced Cytidine Deaminase (AID): AID signals). Details: recombinant AID, FRET deamination/UDG coupled fluorescence, 4 h; series mostly up to 115 µM; activity, negative = inhibition: at the top concentration.
Sequence of UniProt Q9GZX7 (Q9GZX7 whole entry, looked up): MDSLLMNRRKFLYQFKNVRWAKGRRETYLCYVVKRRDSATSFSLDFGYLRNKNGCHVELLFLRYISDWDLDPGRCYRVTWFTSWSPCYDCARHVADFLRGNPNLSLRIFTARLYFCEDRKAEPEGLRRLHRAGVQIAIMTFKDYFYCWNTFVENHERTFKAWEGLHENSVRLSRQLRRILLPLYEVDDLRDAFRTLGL
In short: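 Read 1 (AID) was measured at 540 ex/590 em after a 30 min NaOH step. The reaction was AID (1 uM, 4/3x stock) with UDG, compound at final 7.32 nM - 114 uM for 10 min, then DJC20/DJC23 substrate for 4 hr at room temperature. A UDG read at 560/665 serves as counterscreen.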
% is scaled to controls: 0 for no effect and ±100 for the full control effect.

activity, negative = inhibition, inactive:
COC(=O)c1c(NC(=O)CCCOc2ccccc2)sc2c1CCC(C)C2 (stereo unspecified) 11.1%, CCCCCCSc1nc(N)c2c3c(sc2n1)CCCC3C (stereo unspecified) -9.76%, CC(C)Oc1ccc(C(=O)NCCc2csc(-c3cccc(F)c3)n2)cc1 -17.9%, CCOc1ccc(Nc2c(S(=O)(=O)c3ccc(C)cc3)cnc3ccc(OC)cc23)cc1 -15.4%, O=c1cc2nc(-c3cccs3)nc(SCCOc3ccc(Cl)cc3)n2[nH]1 -10.7%, COc1cccc(C(=O)Nc2nc3nc(C)c(Cc4ccccc4)c(=O)n3[nH]2)c1 -1.41%, Cc1ccc2oc(C(=O)NCC(c3ccc(Cl)cc3)N3CCOCC3)c(C)c2c1 (stereo unspecified) -8.51%, COc1ccccc1CNC(=O)CSc1nc2nc(C)c(Cc3ccccc3C)c(C)n2n1 0.0876%, COc1ccc(CCNC(=O)c2c[nH]n3c(=O)c(Cc4ccccc4Cl)c(C)nc23)cc1OC -6.89%, O=C(NCC1CCN(Cc2ccccc2Cl)CC1)c1cc2ccc3cccnc3c2[nH]1 -9.34%, CCc1ccc(NC(=O)c2ccc3c(O)c(S(=O)(=O)c4ccccc4)c(=O)[nH]c3c2)cc1 -17.9%, N=c1n(CCN2CCCCC2)c2ccccc2n1CC(O)COc1ccccc1 (stereo unspecified) -0.329%, Cc1ccccc1Nc1c(-c2ccc(N3CCOCC3)cc2)nc2cccc(C)n12 -6.47%, COc1ccc(OC)c(-c2noc(N3CCN(c4cccc(C(F)(F)F)c4)CC3)n2)c1 -14.8%, CCC(=O)Oc1c(Sc2ccc(C)cc2)c(C)nn1-c1ccccc1 4.43%, CCOc1ccccc1C(=O)N1CCc2cc(OC)c(OC)cc2C1COc1ccc(OC)cc1 (stereo unspecified) -20.7%, COc1ccc(CN(Cc2ccco2)C(=O)COc2ccccc2Cl)cc1 -14.1%, CC1Cc2ccccc2N1S(=O)(=O)c1nnc(NC(=O)c2cccc(F)c2)s1 (stereo unspecified) -1.86%, Cn1nc(C(=O)NCc2ccccc2Cl)c2c1-c1ccccc1S(=O)(=O)C2 -14.1%, COc1ccc(C(C)=O)cc1CSc1nc(NCCc2ccccc2)c2ccccc2n1 -11%, COc1ccc(-c2nn(-c3ccccc3)cc2C2NC(=O)NC(C)=C2C(=O)OC(C)C)cc1Cl (stereo unspecified) -0.932%, Cc1ccc(Cl)cc1N1CCN(CCCNC(=O)c2ccc3nc(N4CCCCC4)sc3c2)CC1 -4.77%, CCn1cc2nc(SCC(=O)Nc3ccccc3C(F)(F)F)n(Cc3ccc(C)cc3)c(=O)c2n1 -22.9%, Cc1ccc(C(=O)c2cn(Cc3ccccc3)c3ccccc3c2=O)cc1 -15.5%, CCc1cccc(C)c1Nc1c(-c2ccc(N(C)C)cc2)nc2cnccn12 -15.9%, Cc1ccc(NC(=O)c2ccc(N(Cc3ccccc3)S(C)(=O)=O)cc2)cc1 1.51%, COC(=O)c1ccc(NC(=O)NC(C)c2c(-n3cccc3)sc(C)c2C)cc1 (stereo unspecified) 1.93%, Cc1cccc(N(CC(=O)N(C)Cc2ccccc2)S(=O)(=O)c2ccccc2)c1C -12.3%, CC(C)(C)c1ccc(C(=O)N2CCC(c3nc4ccccc4o3)CC2)cc1 -14.5%, O=C(CC1N=C2c3ccccc3N=C(SCc3ccccc3F)N2C1=O)NCc1ccc2c(c1)OCO2 (stereo unspecified) -25.5%, O=C(NCCc1nc2ccccc2n1CCCOc1ccc(Cl)cc1)C1CCCCC1 -7.72%, Fc1ccc(Cn2c(-c3cccc(Br)c3)nc3ccccc32)cc1 -17.1%, CCc1ccccc1NC(=O)CSc1nc(-c2ccccc2OC)nc2c1Cc1c(CO)cnc(C)c1O2 -27.7%, Cc1nc2nc(SCC(=O)NCCc3ccc(Cl)cc3)nn2c(C)c1Cc1ccccc1 -24.9%, Cc1ccc(N2C(=O)c3[nH]nc(-c4ccc(Cl)cc4)c3C2c2ccc(F)cc2)cc1 (stereo unspecified) -4.47%, Cc1c(C)n(C)c2ccc(C(=O)N3CCN(c4ccccc4)CC3)cc12 0.494%, COc1ccccc1C(=O)NCCn1cc(SCc2ccccc2Cl)c2ccccc21 -0.695%, C=Cc1ccc(CN2C(=O)N(c3cccc(Cl)c3)S(=O)(=O)c3ccccc32)cc1 1.5%, CC(C)(C)OC(=O)N1CCC(c2c(C(=O)NCCN3CCC(Cc4ccccc4)CC3)cnn2-c2ccccc2)CC1 -19.5%, COc1ccc(OCC(=O)NCC(c2ccc(Cl)cc2)N2CCCCC2)cc1 (stereo unspecified) -11.1%, CCCCOc1ccc(C(=O)N(Cc2ccc(C(C)C)cc2)C2CCS(=O)(=O)C2)cc1 (stereo unspecified) -12.5%, COc1ccc(-n2cc(-c3ccccc3)c3c(NC4CCCC4)ncnc32)cc1 -13.8%, Cc1ccc(S(=O)(=O)Nc2nc3n(n2)C(c2ccccc2Cl)C=C(c2ccccc2)N3)cc1 (stereo unspecified) -17.4%, O=C(CCCCCn1c(=O)[nH]c2ccccc2c1=O)NCc1ccc(Cl)cc1 9.51%, COc1ccc(CCNC(=O)Cn2nc(C)c3c(C)n(-c4ccc(C)cc4)nc3c2=O)c(OC)c1 -17.2%, COc1cccc(CSc2nc(-c3ccccc3OC)nc3c2Cc2c(CO)cnc(C)c2O3)c1 -23.5%, CCn1cc2nc(SCc3cccc(F)c3)n(CCc3ccccc3)c(=O)c2n1 -16.5%, COc1ccccc1-c1nc2cc(NC(=O)c3ccccc3Cl)ccc2o1 -16.3%, Cc1nc(-c2ccc(F)cc2)sc1CCNC(=O)c1ccc(C(C)(C)C)cc1 -13.9%, COc1ccc(C(=O)Nc2nc3c(s2)Cc2cc(OC)ccc2-3)cc1 -28.4%, CCC1CN(C(=O)N2CCC(C(=O)N3CCN(c4cc(C)ccc4C)CC3)CC2)c2ccccc2O1 (stereo unspecified) -27.1%, CC1CCN(C(=O)C(C)Sc2nc(-c3ccccc3)cc(C(F)(F)F)n2)CC1 (stereo unspecified) -10.3%, O=C(CSc1nc2ccccc2nc1Cc1ccccc1)N1CCCCC1 -24.9%, Cn1nc(-c2ccccc2F)c2cc(C(=O)N3CCN(c4ccc(F)cc4)CC3)sc21 -16%, Cc1ccc(C)c(N2CCN(CCCNC(=O)c3ccc4nc(N5CCCCC5)sc4c3)CC2)c1 -11%, CCCOc1c(Cl)cc(C(=O)N(Cc2cccc(OC)c2)C2CCS(=O)(=O)C2)cc1Cl (stereo unspecified) -14.3%, O=C(NCc1ccccc1Cl)c1ccc2c(O)c(S(=O)(=O)c3ccccc3)c(=O)[nH]c2c1 -12.7%, CCOc1ccc(-n2c(CCC(=O)O)ccc2-c2ccc(Br)cc2)cc1 -24.3%, CCC(C(=O)N1CCN(c2ccccc2)CC1)n1nc(C)n2c(cc3sccc32)c1=O (stereo unspecified) -13.4%, CCCOc1ccc(-c2nn(-c3ccccc3)cc2C2NC(=O)NC(C)=C2C(=O)OC(C)C)cc1 (stereo unspecified) -11.1%, C=Cc1ccc(Cn2nc(-c3ccc(C)c(S(=O)(=O)N(CC)CC)c3)ccc2=O)cc1 -25.5%
